Out of some 320,000 compounds screened, about 9,100 (2.8%) were called active. The inconclusive results got no clear call from the source; some entries with a clear call stand among them for comparison. Calls follow the shape of the dose curve; as a rule, active = well fitted activation curve with a large enough effect; inconclusive = small, poorly fitted or top-dose-only effect; inactive = no such curve, though single readings can be large or run the other way. Potencies of inconclusive entries are left out as doubtful fits.
Assay: qHTS Assay for Rab9 Promoter Activators; also: nearly all actives have a fitted effect of over 60% in size; as to activation, negative = inhibition: % of control where 0% means no effect
Conditions: Huh7 Rab9 promoter-luciferase reporter, luminescence, 24 h; series mostly up to 9.22 µM; activation, negative = inhibition: at the top concentration
Description: NIH Chemical Genomics Center [NCGC] NIH Molecular Libraries Probe Production centers Network [MLPCN] MLPCN Grant: MH089537-01 Assay Submitter (PI): Yiannis A. Ioannou NCGC Assay Overview: Niemann Pick Type C (NPC) is a rare neurodegenerative lipidosis that is characterized by lipid storage in the endosomal/lysosomal system. Treatment modalities for this devastating disease are currently non-existent due to the severe obstacles associated with accessing the central nervous system with proteins or genes (Ioannou, 2000). We have developed a new paradigm, termed "Orphan Receptor Bypass Therapy" (ORByT), to address these disorders. This paradigm posits the existence of endogenous "suppressor" proteins whose expression can dramatically improve LSD pathogenesis. The goal is the identification/discovery of small chemical compounds that can modulate the expression of these proteins and provide a new treatment modality for these devastating disorders. One such protein whose overexpression reverses aspects of the NPC phenotype is Rab9. We have developed and optimized a cell based luciferase reporter assay in 1536 well format for the identification of up-regulators of the Rab9 promoter.
The Rab9 promoter is cloned in front of the luciferase reporter gene, therefore […] promoter activation results in luciferase expression. Frozen stock of the Rab9 promoter transfected Huh7 cells were obtained from the laboratory of Dr. Yiannis Ioannou (The Mount Sinai School of Medicine, New York, NY). Cells were propagated and maintained at NCGC in medium containing RPMI-1640 supplemented with 10% FBS, 2mM L-glutamine, and 50ug/ml penicillin/streptomycin. Cells were harvested in and plated for assays in OP-MEM I reduced-serum medium supplemented with 10% FBS. The Amplite luciferase reporter gene assay kit was purchased from ABD Bioquest and prepared/stored according to manufacturers recommendations. qHTS Assay Setup: 1.Dispensed 5ul of Huh7 cells stably expressing Rab9-luciferase at a density of 1500 cells per well 1536-well plates. 2.Incubate cells at 37C, 5% CO2, and 95% humidity for 2 hours. 3.Transferred 23nl per well of compound in DMSO solution. 4.Incubated at 37C, 5% CO2, and 95% humidity for 24 hours. 5.Dispensed 3ul per well of Amplite reagent(ABD Bioquest) per well. 6.Incubate at ambient for 10 minutes. 7.Read using the luminescence protocol on the ViewLux plate reader (Perkin Elmer).
With `COC(=O)c1ccc(Oc2nc3c(c(=O)n(C)c(=O)n3C)n2CCC(C)C)cc1` the “activation, negative = inhibition” value was inactive: -5.58%.
For `COC(=O)CCC(=O)c1oc2ccc(OC)cc2c1N`, the Potency was active: 4.47 µM.
For `Cc1ccc(C2/C(=C(/O)c3cnn(-c4ccccc4)c3C)C(=O)C(=O)N2CCCN2CCOCC2)o1` (stereo not drawn), the Potency was inconclusive [activator, single point].
For `O=C(Nc1ccc2c(c1)CCC2)c1ccc(Br)o1`, the Potency was active: 3.16 µM.
With `CC(=O)[C@@H]1[C@@H](C(=O)c2ccc(C)cc2)[C@]2(C(=O)Nc3ccccc32)[C@H]2C=Cc3cc(F)ccc3N12` the Potency was inconclusive [activator, partial curve].
With `c1ccn2c(SCc3ccc4c(c3)OCO4)nnc2c1` the Potency was inconclusive [activator, partial curve].
In the case of `O=C(Nc1ccc(OC(F)F)cc1)c1cc(S(=O)(=O)N2CCCCC2)ccc1N1CCOCC1`, the “activation, negative = inhibition” value was inactive: 0.461%.
For `CCOC(=O)c1cc(-c2ccco2)nc2c1c(C)nn2CCC#N`, the “activation, negative = inhibition” value was inactive: -2.36%.
In the case of `O=C(N=Nc1c(O)[nH]c2ccccc12)c1cc(-c2cccs2)[nH]n1`, the “activation, negative = inhibition” value was inactive: 16.7%.
With `CCOc1ccc(NC(=O)COc2ccccc2)c([N+](=O)[O-])c1` the Potency was active: 3.55 µM.
In the case of `COc1ccc(C(=O)c2cc3c(cc2[N+](=O)[O-])OCCO3)cc1`, the “activation, negative = inhibition” value was inactive: 0.601%.
In the case of `CCC1(O)CC2CN(CCc3c([nH]c4ccccc34)[C@@](C(=O)OC)(c3cc4c(cc3OC)N(C)C3[C@]45CCN4CC=C[C@@](CC)([C@@H](OC(C)=O)[C@]3(O)C(=O)OC)[C@H]45)C2)C1` (stereo partly drawn), the “activation, negative = inhibition” value was inactive: -38.8% [at 46.1 µM].
In the case of `COc1ccc(-n2cc(-c3ccccc3)nc2SC)cc1`, the Potency was inconclusive [activator, single point].
With `Cc1ccn2c(=O)nc(SCC(=O)Nc3ccc4c(c3)OCO4)nc2c1` the “activation, negative = inhibition” value was inactive: -2.85%.
For `O=C1NCCN/C1=C\C(=O)c1ccccc1`, the Potency was inconclusive [activator, partial curve].
For `COc1cc(/C=C/c2nc3ccccc3c(=O)[nH]2)cc(Br)c1O`, the “activation, negative = inhibition” value was inactive: 3.45%.
With `O=C(CN1C(=O)c2ccccc2S1(=O)=O)N1CCCCC1` the Potency was active: 2.51 µM.
For `O=C(NCC1CCCO1)C(c1ccncc1)N(Cc1cccs1)C(=O)CN1C(=O)c2ccccc2S1(=O)=O` (stereo not drawn), the “activation, negative = inhibition” value was inactive: -4.25%.
In the case of `NC(=S)N/N=C/c1ccc(-c2ccc(Cl)c(Cl)c2)o1`, the “activation, negative = inhibition” value was inactive: 16%.
With `CCCN1CCC(=O)N([C@H](CSc2ccc(C)cc2)c2ccccc2)CC1` the Potency was inconclusive [activator, single point].
In the case of `CCCN1CN=C(Nc2nc3ccccc3o2)NC1`, the Potency was inconclusive [activator, partial curve].
With `Cc1ccc(C)n1-c1ccc(C(=O)NN)s1` the “activation, negative = inhibition” value was inactive: 3.97%.
In the case of `Cc1ccc(NC(=O)N2CCc3ccccc3C2)cc1C`, the Potency was active: 3.16 µM.
In the case of `COc1ccc(Nc2nc(N)nc(CSc3nnc(C)s3)n2)cc1`, the Potency was inconclusive [activator, partial curve].
In the case of `Cc1cnc(NC(=O)CCCNC(=O)c2ccc(Cl)cc2)s1`, the Potency was inconclusive [activator, single point].
With `CCOC(=O)c1sc(N=NC2=C(O)CC(C)(C)CC2=O)c(C(=O)OCC)c1C` the Potency was inconclusive [activator, single point].
For `COC(=O)/C=C1/SC(=NC(=O)c2cccc([N+](=O)[O-])c2)NC1=O`, the Potency was inconclusive [activator, partial curve].
With `O=C(CSc1nnnn1-c1ccc2c(c1)CCC2)Nc1ccc2c(c1)OCCO2` the Potency was inconclusive [activator, single point].
In the case of `O=C(O)c1ccc2c3n(nc2c1)-c1ccc(Cl)cc1CO3`, the Potency was inconclusive [activator, full curve, poor fit].
With `Cc1cc2ncc(-c3ncc(C(F)(F)F)cc3Cl)cn2n1` the Potency was active: 0.398 µM.
With `CCOC(=O)C1CCCN(c2ncnc3c2cnn3-c2ccc(OC)cc2)C1` (stereo not drawn) the Potency was inconclusive [activator, single point].
For `NC(=O)c1ccccc1OCc1nnc(-c2ccccc2Br)o1`, the Potency was inconclusive [activator, partial curve].
In the case of `Cc1ccsc1/C=C/c1ccc2ccccc2n1`, the Potency was active: 2.24 µM.
With `CC(C)(C)c1ccc(C(=O)NC(=S)Nc2nc3c(s2)CCCC3)cc1` the Potency was inconclusive [activator, partial curve].
In the case of `CC(OC(=O)c1ccc([N+](=O)[O-])o1)C(=O)Nc1nc(-c2ccc(F)c(F)c2)cs1` (stereo not drawn), the Potency was inconclusive [activator, partial curve].
With `CC(=O)Nc1ccc(S(=O)(=O)N2CCN(CCN3CCOCC3)CC2)cc1Cl` the “activation, negative = inhibition” value was inactive: 5.78%.
With `O=C(CSc1nnc(-c2ccccc2Cl)o1)N1CCCCC1` the Potency was inconclusive [activator, partial curve].
In the case of `Cc1nc(N)sc1-c1csc(N(C)c2ccc(O)cc2)n1`, the Potency was inconclusive [activator, single point].
In the case of `COC(=O)c1ccc(NC(=O)c2cccc(N3C(=O)C4C5C=CC(C6CC56)C4C3=O)c2)cc1` (stereo not drawn), the “activation, negative = inhibition” value was inactive: 11.5%.
With `C=CCSc1cc(C)nc2c(-c3ccccc3)cnn12` the Potency was active: 3.55 µM.
For `Cc1ccccc1NC(=O)c1ccc2c(c1)OCCO2`, the Potency was inconclusive [activator, partial curve].
For `COc1ccc(N2CC(NS(=O)(=O)c3cccs3)CC2=O)cc1` (stereo not drawn), the “activation, negative = inhibition” value was inactive: -0.886%.
With `O=C(COC(=O)c1ccc(-n2cnnn2)cc1)c1ccc(Br)cc1` the Potency was inconclusive [activator, partial curve].
In the case of `O=c1sc2ccccc2n1COc1ccc(Cl)cc1`, the Potency was inconclusive [activator, single point].
With `O=C(Nc1ncccc1O)c1ccc(OCC2CCCO2)cc1` (stereo not drawn) the Potency was active: 0.794 µM.
For `COc1ccc2oc(=O)c(C(=O)Nc3cccc(C)c3)cc2c1`, the Potency was active: 1.58 µM.
For `Cc1nc(-c2ccc(C(=O)Nc3cccc(F)c3)cc2)cs1`, the Potency was inconclusive [activator, full curve, poor fit].
In the case of `Cc1cccc(CC(C)NC(=O)c2cc(COc3ccc(C)c(C)c3)on2)n1` (stereo not drawn), the Potency was inconclusive [activator, partial curve].
In the case of `COc1cccc(CN2CCCC(C(=O)N3CCCCC3)C2)c1` (stereo not drawn), the “activation, negative = inhibition” value was inactive: -6.58%.
For `O=C1OC(c2ccccc2)=C/C1=C\N1CCOCC1`, the Potency was inconclusive [activator, partial curve].
In the case of `O=C(NC(=S)NCCc1ccccc1)c1ccccc1F`, the Potency was inconclusive [activator, partial curve].
For `COc1ccc2c(c1)Cc1sc(NC(=O)c3ccccc3)nc1-2`, the Potency was inconclusive [activator, partial curve].
For `Fc1ccccc1/C=N/Nc1ncnc2ccccc12`, the Potency was active: 3.16 µM.
For `COc1cc(CN2CCC(C(N)=O)CC2)ccc1OCc1ccccc1`, the Potency was inconclusive [activator, partial curve].
In the case of `CN1C(=O)C2CN(CCc3ccccc3)CNC2N(C)C1=O` (stereo not drawn), the “activation, negative = inhibition” value was inactive: 4.84%.
With `Cc1cc(Nc2ccccc2)n(C(=O)c2ccc(N)cc2)n1` the Potency was inconclusive [activator, partial curve].
With `CC(C)c1ccc(/C=C/C(=O)CCC(=O)O)cc1` the Potency was active: 0.794 µM.
In the case of `Cc1nc(-c2ccc(NC(=O)c3ccco3)cc2)cs1`, the Potency was inconclusive [activator, partial curve].
In the case of `COc1cc(OC)cc(C(=O)Nn2c(C)nc3ccccc3c2=O)c1`, the “activation, negative = inhibition” value was inactive: -5.36%.
For `COCCN(CCOC)c1ncnc2c1cnn2-c1ccc(Cl)cc1`, the Potency was inconclusive [activator, single point].
With `OC(CNc1ncnc2sccc12)c1ccccc1` (stereo not drawn) the “activation, negative = inhibition” value was inactive: 0.658%.
In the case of `Cc1cccc2c(N=NC(=O)c3ccc(NS(=O)(=O)c4cccs4)cc3)c(O)[nH]c12`, the Potency was inconclusive [activator, single point].
For `COc1ccc(-c2nnc(SCc3cccnc3)o2)cc1`, the Potency was inconclusive [activator, single point].
With `O=C(NCc1ccco1)c1cc2ccc(O)cc2oc1=O` the Potency was inconclusive [activator, single point].
In the case of `Cc1ccc(C(=O)COC(=O)c2cccc([N+](=O)[O-])c2)s1`, the “activation, negative = inhibition” value was inactive: 6.95%.
For `CCCn1c(=O)c(C(=O)N/N=C/c2ccccc2F)c(O)c2ccccc21`, the Potency was active: 2.24 µM.
For `Cc1ccc2nc(SCC(=O)Nc3nnc(SCC(N)=O)s3)[nH]c2c1`, the “activation, negative = inhibition” value was inactive: -1.3%.
For `CC(C)(C)C(=O)Nc1scc(-c2ccc(-c3ccccc3)cc2)c1C(=O)O`, the “activation, negative = inhibition” value was inactive: -2.78%.
With `Cc1cc(Cl)ccc1Oc1ncc(-c2ccc(Cl)cc2)cn1` the “activation, negative = inhibition” value was inactive: -5%.
In the case of `CCc1ccc(NC(=O)c2cnccn2)cc1`, the Potency was active: 1.26 µM.
In the case of `Cc1[nH]n(C(N)=S)c(=O)c1N=Nc1ccc2ccccc2c1`, the Potency was active: 3.98 µM.
For `COc1ccc(C(=O)c2ccsc2N)cc1`, the Potency was inconclusive [activator, partial curve].
With `Cc1ccsc1C(=O)N/N=C/c1ccc2c(c1)OCO2` the Potency was active: 0.631 µM.
For `CC(=O)N1CCc2c(sc(NC(=O)c3ccc([N+](=O)[O-])o3)c2C#N)C1`, the Potency was active: 3.98 µM.
In the case of `CN1C(=O)C(O)(c2nnc(-c3ccccc3)o2)c2ccccc21` (stereo not drawn), the Potency was inconclusive [activator, single point].
In the case of `O=C(NC1CCCCC1)C(=S)N1CCOCC1`, the activation, negative = inhibition was inactive: -2.37% [at 1.84 µM].
For `CCCCCOc1ccc(/C=C/c2c([N+](=O)[O-])c(=O)n(C)c(=O)n2C)cc1`, the “activation, negative = inhibition” value was inactive: -4.57%.
With `CC(=O)c1cccc(NC(=S)NC(=O)c2ccc(Br)cc2)c1` the Potency was inconclusive [activator, partial curve].

Reference: PubChem BioAssay AID485297 (National Center for Advancing Translational Sciences (NCATS), 2010)
Potency is read from the fitted curve at half-maximal effect; tags tell the direction and shape of the fitted curve.
